109 sequences from PMC10668032 can be followed below.

This is one part of the list. At the low end of the ranking the order means little.

This test deals with SIX1 homeodomain (reference allele) (UniProt Q15475). Description: universal protein binding microarray. The conditions noted are these: Universal all-10-mer PBM (8x60K, AMADID 030236), 300 nM GST-tagged protein, Alexa Fluor 488 anti-GST; buffer, salt, pH and temperature not stated; high values mean tight binding; most listed sequences are background and not binding sites; double strand, one strand shown.
On to CGATAGCA, for which the binding signal stood at 0.206 E-score. Then ATAATTAT, with 0.126 E-score; and ATCAGTGA, with 0.214 E-score; and CGGGTGAA, with -0.044 E-score.

For AACAGATG, the binding signal was -0.311 E-score. Then AGACTCAG, with -0.115 E-score; and AAACAGTG, with -0.154 E-score; and GGGAATAA, with -0.0243 E-score. Take ATTGTACG: the binding signal is -0.0901 E-score. For AATTATTA, the binding signal was -0.124 E-score. Then GAGAGCTA, with -0.0927 E-score; and CTTGCTCA, with -0.0824 E-score; and GCATTCAC, with -0.0828 E-score. With CAGTAGGG the figure was -0.0144 E-score; with ATAATTCC, -0.144 E-score; with CCAAGCGG, 0.1 E-score. Then GAGCGAAC, with -0.272 E-score; and TATGGCGA, with -0.0179 E-score.

With CAAGTTCC, the binding signal is -0.214 E-score. With AAGCATGA the figure was 0.141 E-score. Then AGATAATG, with 0.13 E-score. Take GTACGTGA: the binding signal is -0.056 E-score. Then CAATTCCA, with -0.165 E-score; and GAACCCGC, with -0.0843 E-score. Then CCCAAAGA, with -0.191 E-score. On to TAAGAAAA, for which the binding signal was -0.147 E-score. Then ACGAAGAA, with 0.0501 E-score; and AGTAGCGG, with -0.0137 E-score. In the case of ATATGGGC, the binding signal worked out at 0.326 E-score. Then CAGCCACC, with 0.0229 E-score; and GGAAGCTA, with -0.0526 E-score; and GACACCGC, with 0.398 E-score. Then ACACCGTA, with 0.344 E-score; and ACGCTAGT, with -0.155 E-score; and GATCGAGA, with 0.295 E-score.

As to AAGATTGC, the binding signal is -0.163 E-score. Then CGACGCGC, with 0.0588 E-score. Then CGAGCTAA, with -0.0678 E-score. With GGAGGTAA, the binding signal is -0.272 E-score. With GCCCTGGA the figure was 0.0936 E-score; with GCCAACCA, -0.196 E-score.

Regarding GGACAGCA, the binding signal is -0.204 E-score. Then ATCACAAT, with 0.321 E-score; and ACCTAGAT, with 0.312 E-score. With ATCAGCGC the figure was 0.136 E-score; with CATTGTTC, 0.0622 E-score; with ACGTTTTG, -0.303 E-score. With ATCTACAT the figure was 0.06 E-score. Regarding GCTCACAA, the binding signal is -0.00967 E-score. With TAGCAAGA the figure was 0.122 E-score. On to ACGACGCT, for which the binding signal was -0.27 E-score. Regarding CCGCCCCA, the binding signal was 0.258 E-score. Take AAGGTCCT: the binding signal was -0.257 E-score. Then GTCTATTA, with -0.138 E-score; and AGAATTGA, with -0.1 E-score; and CTGCATTA, with -0.11 E-score. Then ATGCGCAT, with 0.148 E-score; and AGGAACTA, with -0.134 E-score; and ATATTTCG, with 0.101 E-score. In the case of CTAGCAAA, the binding signal turned out to be 0.0609 E-score. With GGTGCATA the figure was 0.0702 E-score; with AACACGGC, -0.0034 E-score.

Consider ATCGTAAA, for which the binding signal came to 0.159 E-score. In the case of ACTATTAG, the binding signal turned out to be 0.0327 E-score.

Consider AAAGATAC, for which the binding signal was 0.365 E-score. With GTACGCAC the figure was -0.311 E-score. Then CGTCATTA, with -0.0699 E-score; and CGGGCCTA, with -0.127 E-score. Then CGTTCAAA, with -0.1 E-score.

AGTATACA: the binding signal is 0.294 E-score. For the sequence AGACTGCC, the binding signal was -0.199 E-score. With AGATAGCT the figure was 0.178 E-score. With AAACTAAA the figure was -0.179 E-score; with ACTAGCAT, -0.111 E-score; with CGCCTTGA, -0.0444 E-score.

In the case of ATGAAAAC, the binding signal was -0.119 E-score. Regarding GCAAGAAC, the binding signal is -0.0609 E-score. With ATAGTCTC the figure was 0.151 E-score; with CTATAAAC, 0.085 E-score; with GTCAGGGA, -0.122 E-score. Then AGTAGGAC, with -0.0515 E-score. Then TCAGGTAA, with -0.182 E-score. Regarding AGTACCTC, the binding signal was -0.0331 E-score. Regarding ACTATAGA, the binding signal came to 0.0353 E-score. Then CTTCGAAC, with -0.246 E-score; and CCACCGGG, with 0.0409 E-score. Turning to AGCGAGAG, the binding signal was -0.041 E-score. With AATCAGCG the figure was -0.0852 E-score; with ACTTTTCC, -0.232 E-score. GAGGTATC: the binding signal came to 0.477 E-score. Then AGCTTGAA, with -0.215 E-score. With ATGCCATA the figure was 0.0949 E-score; with TGGTCACA, -0.0876 E-score. As to GCACACCA, the binding signal was 0.125 E-score. Then GCAAACAA, with -0.32 E-score. Then AGGCGTCG, with -0.152 E-score; and AAGGAAAT, with -0.293 E-score. Then ACACAGAC, with -0.124 E-score. Regarding AAGTTATA, the binding signal turned out to be 0.029 E-score.

As to TCAGGACA, the binding signal is 0.0236 E-score.

On to AAAGTATG, for which the binding signal was -0.109 E-score. With CGCATTGA the figure was 0.154 E-score; with GGCTAGGA, -0.218 E-score; with AGCTTGCA, -0.187 E-score. With TAGGCTGA the figure was -0.0613 E-score; with CATACCGC, 0.0555 E-score.

Take CAGGGAAA: the binding signal is -0.203 E-score.

For ATCAGGGA, the binding signal was 0.209 E-score. With ATTATGGA, the binding signal was found to be 0.191 E-score.
